Assay results as given in publication PMC4336329 (PLoS ONE, 2015).
Out of some 310,000 compounds screened, about 14,000 (4.5%) showed an effect of 50% or more. Effects have a minus sign here. The list shows a part of the results.

Each compound was assayed against human ether-à-go-go-related gene (hERG) potassium channel (human, UniProt Q12809) (assay: primary screen, population patch clamp on CHO cells stably expressing hERG).
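Note: peak tail current of the secondary pulse compared with the same well before compound.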

Sequence of human ether-à-go-go-related gene (hERG) potassium channel (Q12809 whole entry, looked up): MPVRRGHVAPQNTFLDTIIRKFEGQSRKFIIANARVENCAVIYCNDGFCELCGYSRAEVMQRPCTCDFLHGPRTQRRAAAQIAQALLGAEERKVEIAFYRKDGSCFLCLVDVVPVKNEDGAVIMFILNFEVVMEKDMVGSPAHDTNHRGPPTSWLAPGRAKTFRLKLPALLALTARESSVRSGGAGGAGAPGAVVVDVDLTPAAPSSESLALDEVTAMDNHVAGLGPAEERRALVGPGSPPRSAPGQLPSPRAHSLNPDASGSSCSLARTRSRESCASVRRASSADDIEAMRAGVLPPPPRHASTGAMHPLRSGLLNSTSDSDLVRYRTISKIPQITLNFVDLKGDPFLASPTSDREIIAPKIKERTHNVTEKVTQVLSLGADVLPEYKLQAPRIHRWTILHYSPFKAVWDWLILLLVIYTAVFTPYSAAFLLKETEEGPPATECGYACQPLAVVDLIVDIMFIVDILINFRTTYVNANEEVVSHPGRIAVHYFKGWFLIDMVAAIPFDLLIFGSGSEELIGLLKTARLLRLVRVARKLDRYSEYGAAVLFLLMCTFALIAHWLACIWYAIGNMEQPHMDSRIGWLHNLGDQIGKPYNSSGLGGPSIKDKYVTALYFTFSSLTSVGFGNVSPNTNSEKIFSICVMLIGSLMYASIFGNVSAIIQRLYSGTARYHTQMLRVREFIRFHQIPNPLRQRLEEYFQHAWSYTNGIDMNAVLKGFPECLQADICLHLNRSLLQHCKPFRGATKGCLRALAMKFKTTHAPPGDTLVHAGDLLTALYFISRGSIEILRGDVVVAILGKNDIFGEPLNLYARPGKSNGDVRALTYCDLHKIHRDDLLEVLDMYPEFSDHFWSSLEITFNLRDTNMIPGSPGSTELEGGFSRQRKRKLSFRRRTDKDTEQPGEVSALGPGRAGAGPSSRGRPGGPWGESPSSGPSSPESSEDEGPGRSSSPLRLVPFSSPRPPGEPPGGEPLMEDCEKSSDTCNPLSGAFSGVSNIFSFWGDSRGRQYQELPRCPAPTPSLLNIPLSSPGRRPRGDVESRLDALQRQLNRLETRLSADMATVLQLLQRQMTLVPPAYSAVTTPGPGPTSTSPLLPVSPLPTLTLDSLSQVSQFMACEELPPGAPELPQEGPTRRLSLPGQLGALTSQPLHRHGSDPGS

Compound | hERG current change (%, negative = inhibition) at 10uM [%]
O=C(COC(=O)c1ccc(Br)o1)Nc1ncc(Cl)cc1Cl | 21.5
CCOC(=O)c1cnc(C(F)(F)F)nc1Oc1ccccc1 | 5.4
CCn1nnc2sc3c(c2c1=O)CCC(C)C3 (stereo not shown) | -1.31
CC1CCN(CCC(=O)NN)CC1 | 8.2
Cc1ccc(-c2ccc(/C=N\NC(=O)C3C(=O)NCC3c3ccccc3)o2)cc1Cl (stereo not shown) | -16.9
Cc1snc(SCc2cccc(Cl)c2)c1C#N | 7.09
Cc1ccc(CCNC(=O)C2CC(=O)N(C3CCCCC3)C2)cc1 (stereo not shown) | 9.48
COc1ccc(NC(=O)c2cc(-c3ccccn3)nc3c(C)cc(C)cc23)c(C)c1 | 47.2
O=C(CN1CCCCC1)NCCNc1ccc(C(F)(F)F)cc1[N+](=O)[O-] | -41.8
O=C(Nc1ccccc1C(F)(F)F)c1cccnc1 | 17.4
COc1ccccc1NC(=O)CSCC(N)=O | 15.4
CN(C)c1cccc(C(=O)NNC(=S)NC2CC3CCC2C3)c1 (stereo not shown) | 7.29
CCN1CCC(CNCc2cn(-c3ccc(OC)cc3)nc2-c2ccccc2Cl)C1 (stereo not shown) | -9.43
O=C(CNC(=S)N(Cc1ccccc1F)C1CCCCC1)NCC1CCCO1 (stereo not shown) | 2.47
Cc1nc2ccccc2c(=O)n1-c1ccc(C(=O)O)cc1 | 0.562
Cc1ccc(C(=O)C2CN(C)CC2C(=O)c2ccc(C)cc2)cc1 (stereo not shown) | -57
CN(C)S(=O)(=O)c1ccc(NC(=O)C2COc3ccccc3O2)cc1 (stereo not shown) | -7.07
O=C(Nc1nnc(C2CC2)s1)c1cc(S(=O)(=O)N2CCCCC2)ccc1N1CCOCC1 | -7.12
O=C(NCc1ccc(F)cc1)c1ccc(N2CCc3ccccc32)c([N+](=O)[O-])c1 | -13.4
COc1cccc(-c2nn(CCC#N)cc2C(=O)Nc2ccccc2Cl)c1 | 5.09
COc1ccc(Cn2c(=O)[nH]c3cc(C(=O)NCCc4ccc(S(N)(=O)=O)cc4)ccc3c2=O)cc1 | 10.1
O=C(NNC(=S)NC1CCCCC1)c1ccc(Cl)s1 | 37.1
O=C(CSc1ccc(-c2ccccc2)nn1)c1cccs1 | 3.67

Compound | hERG current change (%, negative = inhibition) at 10uM [%]
COCCN(Cc1cc2cc3c(cc2nc1Cl)OCO3)C(=O)c1ccc(C)cc1 | -53.2
COc1ccc(N(C(=O)c2cnsn2)C(C(=O)NC2CCCCC2)c2ccncc2)cc1 (stereo not shown) | -26.7
O=C(CSc1nc(C2CC2)nc2ccccc12)Nc1ccc2c(c1)OCCO2 | 3.48
O=C(Nc1nnc(-c2ccc(Cl)cc2)o1)C1=COCCO1 | 2.75
CS(=O)(=O)N1CCC(NC(=O)Nc2ccc(OC(F)(F)F)cc2)CC1 | -18.7
CCC(C)NC(=O)CNC(=O)c1nn(-c2ccc(OC)c(Cl)c2)c(=O)c2ccccc12 (stereo not shown) | -8.24
COC(C(=O)Nc1cccc(F)c1)c1ccccc1 (stereo not shown) | 10.9
CC(C(=O)NC1C=CS(=O)(=O)C1)N1C(=O)/C(=C\c2ccccc2)SC1=S (stereo not shown) | -4.04
O=C(NCCS(=O)(=O)N1CCN(c2ccccc2)CC1)c1ccccc1F | 6.68
CC1=CC(=C2C(=O)NC(=S)NC2=O)C=C(C(F)(F)F)N1CCc1ccccc1 | 12.9
Cc1csc(NC(=O)c2cc(=O)[nH]c3ccccc23)n1 | 7.02
CCCn1c(N)c(C(=O)CN2CCc3ccccc3C2)c(=O)n(C)c1=O | -27.7
C=C(C)C1CC=C(C)/C(=N/NC(=O)COc2ccccc2Cl)C1 (stereo not shown) | 19.8
O=C(NCCc1csc(-c2ccccc2)n1)c1ccc(Br)o1 | -21.9
O=C(c1cnn(-c2cccc(F)c2)c1)c1ccccc1O | 5.63
CC(NC(=O)COc1cccnc1[N+](=O)[O-])c1ccc(F)cc1 (stereo not shown) | 2.07
O=C(CCC(=O)N(CC(=O)NC1CCCCC1)CC1CCCO1)Nc1nccs1 (stereo not shown) | 5.65
COc1ccc(C2CC(=O)N(c3ccccc3)C3=C2C(=O)CCC3)cc1 (stereo not shown) | 13.1
Cc1nc2ccc(NC(=S)N3CCC(C)CC3)cc2nc1C | -43.2
COc1ccc(/C=N/NC(=O)c2nc(Cl)c(Cl)c(N)c2Cl)cc1COc1ccccc1F | -4.09
CCOC(=O)C1=C(O)CSC1=Nc1ccccc1 | 1.34
COc1ccc(Oc2ncccc2[N+](=O)[O-])cc1 | 6.57
O=C(Nc1cccc(F)c1)N1CCC(n2c(=O)[nH]c3ccccc32)CC1 | -19

Compound | hERG current change (%, negative = inhibition) at 10uM [%]
CCOc1ccc(S(=O)(=O)N(CC)CC)cc1NS(=O)(=O)c1ccc(F)c(F)c1F | -1.09
CCOc1ccc(NC(=O)CCc2ccc(C)o2)cc1 | 14.6
COCCNC(=O)c1c(N)n(-c2cccc(C)c2)c2nc3ccccc3nc12 | -24.7
Cc1c(C(=O)N2CCN(Cc3ccccc3)CC2)sc2ncnc(N3CCOCC3)c12 | -26.4
COc1ccccc1CNC(=O)C1CCN(S(=O)(=O)N2CC(C)CC(C)C2)CC1 (stereo not shown) | 11.2
COC(=O)c1sccc1NC(=O)C1CC=CCC1C(=O)O (stereo not shown) | 18.7
COc1ccc(N2C(=O)C3CCCN3C2c2cccc(Br)c2)cc1 (stereo not shown) | -0.299
Cc1cc(OCCN2CC2)c2ccccc2n1 | -8.54
COCCn1c(SCC(=O)c2[nH]c(C)c(C(C)=O)c2C)nc2ccccc21 | -11.3
COc1ccc(NC(=O)NC23CC4(C)CC(C)(CC(C)(C4)C2)C3)cc1OC | 9.32
Cn1ncc2c(NNC(=O)c3ccc(Cl)c(Cl)c3)ncnc21 | -15.9
Cc1cccc(-c2nnc(SCC3CNC(=O)O3)n2-c2ccc(Cl)cc2)c1 (stereo not shown) | -40.3
O=C(NCc1ccccc1)C1CCC(CNS(=O)(=O)c2cccs2)CC1 (stereo not shown) | 10.5
Cc1cc(C)c(S(=O)(=O)N2CCN(C(=O)c3ccc(-n4cncn4)c([N+](=O)[O-])c3)CC2)c(C)c1 | -62.5
CC(C)CN(C(=O)COC(=O)CNC(=O)c1ccc(Cl)cc1)C1CCS(=O)(=O)C1 (stereo not shown) | 12.7
Cc1ccccc1NC(=O)CSc1nnc(-c2ccccn2)o1 | 4.41
CCC(C)NC(=O)CC1Oc2ccc(Cl)cc2NC1=O (stereo not shown) | 6.64
NC(=O)c1oc2ccccc2c1NC(=O)Cc1ccccc1 | 17.7
Cc1c(CC(=O)O)c(=O)oc2cc(OCc3nn[nH]n3)ccc12 | -0.585
CSc1nnc2ccc(-c3cccs3)nn12 | -8.27
COc1ccc(C2C(C(=O)c3ccco3)=C(O)C(=O)N2CC2CCCO2)cc1 (stereo not shown) | -3.78
COc1ccccc1Cn1c(=O)oc2ccc(C)cc21 | -2.44
C[C@H](NC(=O)c1ccccc1)C(=O)OCC(=O)Nc1ccc2c(c1)OCO2 | -1.08

Compound | hERG current change (%, negative = inhibition) at 10uM [%]
Cn1c(SCCOc2ccc(Cl)cc2)nnc1-c1ccncc1 | -56.3
CCOC(=O)c1cc2c(=O)n3ccccc3nc2n(Cc2ccccc2)c1=N | -74.6
CCOc1ccc(-c2nn[nH]n2)cc1OCC | 11.3
CCCOc1ccc(-c2nnn(CC(=O)N3CCCC(C)C3)n2)cc1 (stereo not shown) | -0.918
O=C1CSC(c2cccnc2)N1Cc1ccc(Cl)c(Cl)c1 (stereo not shown) | -4.85
O=C(/C=C/c1ccccc1[N+](=O)[O-])NCC1CCCO1 (stereo not shown) | -3.47
C=CCc1cccc2cc(C(=O)N3CCN(C(=O)c4ccco4)CC3)c(=O)oc12 | -1.92
O=C(OCC(=O)C12CC3CC(CC(C3)C1)C2)c1cnccn1 | 14.8
Cc1ccc(C(=O)O/N=C(\N)c2ccccn2)c(Cl)c1 | -0.617
CCNc1nc2c(c(=O)[nH]c(=O)n2C)n1CC(C)C | 2.16
Cc1cc2ccccn2c1C(=O)c1ccc([N+](=O)[O-])o1 | 9.2
C=CCOC(=O)C1=C(C)NC(SC)=C(C#N)C1c1cccs1 (stereo not shown) | -15.1
CCCCCn1c(=O)[nH]c2cc(C(=O)NCCc3ccc(OC)c(OC)c3)ccc2c1=O | 0.0929
CCc1ccccc1N(CC(=O)N1CCc2ccccc2C1)S(C)(=O)=O | 2.16
O=C(CSc1nnc(CNC(=O)c2ccco2)o1)Nc1ccc(F)cc1F | 8.95
CN(C)c1cccc(O)c1 | 23.9
CCOC(=O)c1ccc(NC(=O)c2n[nH]c(=O)c3ccccc23)cc1 | 5.74
C/C(Cc1ccccc1)=N\NC(=O)CNC(=O)c1cccc(Cl)c1 | 5.67
COc1ccc(Cc2nnc(NC(=O)Nc3ccccc3OC)s2)cc1 | 24.9
Cc1nn(CC(=O)Nc2ccc3c(c2)OCO3)c(C)c1Cl | 0.823
COc1cc(OC)cc(C(=O)NCC(=O)OCc2cc(=O)oc3cc(OC)ccc23)c1 | 3.36
CCN(CC)CCCNC(=O)c1cn(C)c2ccc(S(=O)(=O)N(C)C)cc2c1=O | 3.07
